Here are results for 65 compounds from the supplement of paper PMC9446081.

Among all 39,000 compounds or so, about 220 (0.56%) showed activity. Some of the results follow.
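Also: static incubation at 37 °C against the wild-type strain, values averaged over two biological replicates.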

The subject of the assay is Escherichia coli K-12 BW25113. Kind of assay: relative growth (OD600 normalised to plate interquartile mean) (fraction); higher = less growth inhibition, active = 0.2 or less. The following applies: 50 µM; LB; incubation time: overnight (16-24 h).
As for `CN(C)CCCN1c2ccccc2Sc2ccc(C(F)(F)F)cc21.Cl`, the relative growth is inactive: 0.71.

Turning to `C[C@@H]1CNC(=O)CO1`, the relative growth is inactive: 0.968.

Take `Cc1ccc(S(=O)(=O)N(C)C[C@H]2Oc3ccc(NS(=O)(=O)c4ccccc4)cc3CC(=O)N([C@@H](C)CO)C[C@@H]2C)cc1`: the relative growth is inactive: 0.989.

Regarding `COc1nsnc1N1CCOCC1`, the relative growth is inactive: 0.976.

Take `CCNC(=O)C[C@@H]1CC[C@H]2[C@H](COc3ccc(NS(=O)(=O)c4ccccc4C)cc3C(=O)N2C)O1`: the relative growth is inactive: 0.981.

For `Cc1ccc(S(=O)(=O)Nc2ccc3c(c2)C(=O)N([C@H](C)CO)C[C@H](C)[C@@H](CN(C)S(C)(=O)=O)O3)cc1`, the relative growth is inactive: 1.01.

On to `C[C@H](CO)N1C[C@H](C)[C@H](CN(C)S(C)(=O)=O)OCCCC[C@H](C)Oc2ccc(NS(C)(=O)=O)cc2C1=O`, for which the relative growth is inactive: 0.959.

`CC(C)NC(=O)Nc1ccc2c(c1)C(=O)N([C@H](C)CO)C[C@H](C)[C@H](CN(C)S(C)(=O)=O)OCCCC[C@H](C)O2`: the relative growth is inactive: 0.981.

As for `C[C@H](CO)N1C[C@H](C)[C@H](CN(C)S(=O)(=O)c2ccc(F)cc2)Oc2ccc(NC(=O)c3ccncc3)cc2CC1=O`, the relative growth was inactive: 0.973.

As to `C[C@@H]1CN([C@@H](C)CO)C(=O)Cc2cc(NC(=O)Nc3ccc(C(F)(F)F)cc3)ccc2O[C@@H]1CN(C)Cc1ccc(C(=O)Nc2ccccc2N)cc1`, the relative growth is inactive: 1.

Turning to `COc1ccc(NC(=O)N(C)C[C@@H]2OCCCC[C@H](C)Oc3ccc(NC(=O)c4ccncc4)cc3C(=O)N([C@H](C)CO)C[C@H]2C)cc1`, the relative growth is inactive: 0.987.

Consider `COc1ccc(C#Cc2cnc3c(c2)C(=O)N([C@H](C)CO)C[C@H](C)[C@H](CN(C)S(=O)(=O)c2ccc(C#N)cc2)O3)cc1OC`, for which the relative growth is inactive: 1.04.

As to `Cl.Clc1cccc(Cl)c1N=C1NCCN1`, the relative growth was inactive: 1.21.

Regarding `Clc1cc(Cl)cc(Oc2nc(-c3ccccc3)ns2)c1`, the relative growth is inactive: 0.97.

Turning to `COc1ccc(NC(=O)Nc2ccc3c(c2)C(=O)N([C@@H](C)CO)C[C@H](C)[C@@H](CN(C)S(=O)(=O)c2ccc(F)cc2)OCCCC[C@@H](C)O3)cc1`, the relative growth was inactive: 1.

For `C[C@@H]1CN([C@@H](C)CO)C(=O)c2cc(NS(=O)(=O)c3ccc(Cl)cc3)ccc2O[C@@H](C)CCCCO[C@@H]1CN(C)C(=O)Nc1ccccc1`, the relative growth was inactive: 1.03.

Take `O=C1CN(C(=O)c2ccccc2)C(=S)N1`: the relative growth was inactive: 1.02.

With `C=CCC[C@@H](Cc1ccc(F)cc1)C(=O)OC[C@@H](Cc1ccccc1)NC(=O)[C@H](CC=C)CC(=O)N[C@@H](CO)Cc1ccccc1`, the relative growth is inactive: 1.03.

`O=C(NCC[C@@H]1CC[C@H](NS(=O)(=O)c2cccc(F)c2)[C@@H](CO)O1)C1CC1`: the relative growth is inactive: 0.987.

For `Cc1ccc(S(=O)(=O)Nc2ccc3c(c2)C(=O)N([C@@H](C)CO)C[C@H](C)[C@@H](CN(C)Cc2ccccc2)OCCCC[C@@H](C)O3)cc1`, the relative growth was inactive: 0.983.

Turning to `N[C@@H](CSCc1ccccc1Cl)C(=O)O`, the relative growth was inactive: 0.968.

On to `O=C(O)CCN1CCCCCC1=O`, for which the relative growth is inactive: 1.01.

For `Cc1ccc(S(=O)(=O)N(C)C[C@@H]2OCCCC[C@@H](C)Oc3ccc(NS(=O)(=O)c4ccc(Cl)cc4)cc3C(=O)N([C@H](C)CO)C[C@H]2C)cc1`, the relative growth is inactive: 1.01.

On to `COc1ccc(S(=O)(=O)Nc2ccc3c(c2)CC(=O)N([C@@H](C)CO)C[C@@H](C)[C@H](CN(C)S(=O)(=O)c2ccc(F)cc2)O3)cc1`, for which the relative growth was inactive: 0.997.

In the case of `Cc1cc2c(o1)CC(C)(C)CC2=O`, the relative growth was inactive: 0.973.

For `C[C@@H]1CN([C@H](C)CO)C(=O)c2cc(NC(=O)Cn3cnnn3)ccc2O[C@H]1CN(C)Cc1ccc2c(c1)OCO2`, the relative growth is inactive: 0.968.

On to `O=C(O)CN1CCCCCC1=O`, for which the relative growth is inactive: 0.981.

As to `O=c1c(O)c(-c2ccccc2)oc2cc(O)ccc12`, the relative growth is inactive: 1.08.

Regarding `C[C@H]1CN([C@@H](C)CO)S(=O)(=O)c2ccc(Br)cc2O[C@H]1CN(C)C(=O)NC1CCCCC1`, the relative growth is inactive: 0.964.

As for `COc1ccc(-c2coc3cc(OC)cc(OC)c3c2=O)cc1`, the relative growth is inactive: 0.852.

Regarding `C[C@H](CO)N1C[C@H](C)[C@H](CN(C)Cc2ccc(C(F)(F)F)cc2)Oc2ccc(NC(=O)Nc3cccc4ccccc34)cc2C1=O`, the relative growth was inactive: 1.

Take `C[C@@H]1CN([C@@H](C)CO)C(=O)Cc2cc(NC(=O)CCCCCC(=O)Nc3ccccc3N)ccc2O[C@H]1CN(C)C(=O)Nc1ccc(F)cc1`: the relative growth is inactive: 0.979.

On to `C[C@H](CO)N1C[C@H](C)[C@@H](CN(C)Cc2ccccc2)OCCCC[C@H](C)Oc2ccc(NC(=O)Nc3ccc(F)cc3)cc2C1=O`, for which the relative growth is inactive: 1.01.

Turning to `COc1ccccc1C#Cc1cnc2c(c1)C(=O)N([C@H](C)CO)C[C@@H](C)[C@H](CN(C)C(=O)CN(C)C)O2`, the relative growth was inactive: 1.01.

`C[C@H]1CN([C@@H](C)CO)C(=O)Cc2cc(NC(=O)Nc3ccc(C(F)(F)F)cc3)ccc2O[C@H]1CN(C)Cc1ccc(-c2ccccc2)cc1`: the relative growth was inactive: 1.02.

`CC1(C)SC2C(NC(=O)C(N)c3ccccc3)C(=O)N2C1C(=O)[O-].[Na+]` (stereo not given): the relative growth was inactive: 1.06.

Turning to `C[C@@H]1CCCCO[C@@H](CN(C)C(=O)Nc2ccccc2)[C@@H](C)CN([C@H](C)CO)C(=O)c2cc(NS(=O)(=O)c3ccccc3)ccc2O1`, the relative growth is inactive: 1.01.

`O=C(C[C@H]1CC[C@@H]2[C@H](COC[C@@H](O)CN2C(=O)c2ccccn2)O1)NC1CCC1`: the relative growth is inactive: 0.98.

For the compound `NC(=O)NCCCC(N)C(=O)O` (stereo not given), the relative growth is inactive: 1.07.

Take `C[C@@H]1CN([C@H](C)CO)C(=O)c2cccc(NS(=O)(=O)c3ccc(F)cc3)c2O[C@H]1CN(C)S(=O)(=O)c1ccc(F)cc1`: the relative growth was inactive: 1.

For the compound `C[C@H](CO)N1C[C@H](C)[C@@H](CN(C)C(=O)Nc2ccccc2)Oc2c(NS(C)(=O)=O)cccc2C1=O`, the relative growth was inactive: 0.902.

On to `COc1cccc(NC(=O)N[C@@H]2C=C[C@H](CC(=O)N3CCN(C)CC3)O[C@@H]2CO)c1`, for which the relative growth is inactive: 1.01.

Regarding `C[C@@H]1CN([C@@H](C)CO)C(=O)c2cccc(NC(=O)c3cnccn3)c2O[C@H]1CN(C)Cc1ccncc1`, the relative growth was inactive: 1.

Regarding `C=CCC[C@@H](Cc1ccc(F)cc1)C(=O)OC[C@@H]1CCCN1C(=O)[C@H](CC=C)CC(=O)N(CCO)Cc1ccccc1`, the relative growth is inactive: 1.03.

Regarding `COC(=O)CCCCCCC(=O)Nc1ccc([C@H]2O[C@@H](CSc3nc(-c4ccccc4)c(-c4ccccc4)o3)C[C@H](c3ccc([N+](=O)[O-])cc3)O2)cc1`, the relative growth is inactive: 1.

Regarding `CC(C)NC(=O)Nc1ccc2c(c1)C(=O)N([C@H](C)CO)C[C@@H](C)[C@@H](CN(C)CC1CCCCC1)OCCCC[C@@H](C)O2`, the relative growth was inactive: 1.01.

For `C[C@H]1CN([C@@H](C)CO)C(=O)c2cccc(NC(=O)Nc3cccc4ccccc34)c2O[C@H]1CN(C)C(=O)Nc1ccc2c(c1)OCO2`, the relative growth is inactive: 1.03.

For the compound `C[C@@H]1CCCCO[C@@H](CN(C)S(=O)(=O)c2cccs2)[C@H](C)CN([C@@H](C)CO)C(=O)c2cc(NS(=O)(=O)c3ccc(Cl)cc3)ccc2O1`, the relative growth is inactive: 1.04.

`C[C@H](CO)N1C[C@H](C)[C@H](CN(C)S(=O)(=O)c2cccc(F)c2)Oc2ncc(C#CC3(O)CCCC3)cc2C1=O`: the relative growth was inactive: 1.01.

For the compound `C[C@@H]1CN([C@@H](C)CO)C(=O)c2ccccc2-c2ccccc2CO[C@@H]1CN(C)C(=O)Nc1ccc(F)cc1`, the relative growth is inactive: 0.974.

Take `C[C@H]1CCCCO[C@@H](CN(C)C(=O)Nc2ccc(C(F)(F)F)cc2)[C@@H](C)CN([C@@H](C)CO)C(=O)c2cc(NC(=O)CCC(F)(F)F)ccc2O1`: the relative growth is inactive: 1.

Turning to `O=C(C[C@@H]1C=C[C@H](NC(=O)CN2CCOCC2)[C@@H](CO)O1)NCc1cccc(F)c1`, the relative growth is inactive: 1.02.

As to `CCCNC1CCc2nc(N)sc2C1.Cl.Cl` (stereo not given), the relative growth was inactive: 0.934.

Regarding `COc1ccc(S(=O)(=O)Nc2ccc3c(c2)CC(=O)N([C@H](C)CO)C[C@H](C)[C@@H](CN(C)S(=O)(=O)c2ccc(F)cc2)O3)cc1`, the relative growth is inactive: 0.982.

Turning to `COc1ccc(NC(=O)N(C)C[C@@H]2OCCCC[C@H](C)Oc3ccc(NC(=O)Cc4ccccc4)cc3C(=O)N([C@H](C)CO)C[C@H]2C)cc1`, the relative growth was inactive: 0.984.

In the case of `COc1ccc(CN(C)C[C@@H]2Oc3ccc(NS(=O)(=O)c4cn(C)cn4)cc3C(=O)N([C@@H](C)CO)C[C@@H]2C)cc1`, the relative growth is inactive: 0.992.

Regarding `Cc1noc(C)c1NC(=O)Nc1ccc2c(c1)CC(=O)N([C@@H](C)CO)C[C@@H](C)[C@H](CN(C)Cc1ccc(Oc3ccccc3)cc1)O2`, the relative growth is inactive: 1.06.

For the compound `COC(=O)c1c(CC[C@@H](CO)NC(=O)NCCn2cc(C3(O)CCCC3)nn2)oc(C(C)=O)c1C(=O)OC`, the relative growth is inactive: 0.982.

As for `Cc1ccc(S(=O)(=O)Nc2cccc3c2O[C@@H](CN(C)S(=O)(=O)c2ccccc2)[C@H](C)CN([C@@H](C)CO)C3=O)cc1`, the relative growth is inactive: 0.982.

On to `Cc1ccc(S(=O)(=O)Nc2cccc3c2O[C@@H](CN(C)S(C)(=O)=O)[C@@H](C)CN([C@H](C)CO)C3=O)cc1`, for which the relative growth is inactive: 0.969.

Turning to `COCC(=O)NCc1cc(=O)n2c(n1)CN(c1ncccn1)CCC2`, the relative growth is inactive: 1.01.

For `CC(C)N1C[C@H](C)[C@@H](CN(C)Cc2ccc(Oc3ccccc3)cc2)Oc2c(NC(=O)C3CCNCC3)cccc2C1=O`, the relative growth was inactive: 0.958.

Regarding `Nc1nnc(-c2ccc([N+](=O)[O-])o2)o1`, the relative growth is inactive: 0.258.

For `CC1=CC(=O)C2=C(C)CCC3C(C)C(=O)OC3C12` (stereo not given), the relative growth was inactive: 0.758.

Take `COc1ccc(NC(=O)Nc2ccc3c(c2)C(=O)N([C@@H](C)CO)C[C@@H](C)[C@H](CN(C)C(=O)Nc2cccc4ccccc24)OCCCC[C@H](C)O3)cc1`: the relative growth is inactive: 1.03.
